Source: the supplement of paper PMC10126150
Values marked as one replicate rest on one cluster of the flow cell; about a third of the high ones do not repeat.
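Note: ATP exposure 15 min at 22 °C before imaging.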

The sequences below were run on ATP (assay: switch fluorescence ratio, 500 uM ATP over buffer (Cy3 cluster intensity, sum of 5 cycles each) (fold (ratio)); higher = stronger signal-on switching upon ATP binding; sequences stand for … in TCGTCGGCAGCGTCAGATGTGTATAAGAGACAGTTTTTTTTTTTTTTTTTTTTTTTTT…TC). Details: aptamer strand: ATP DNA aptamer (quencher-CACCTGGGGGAGTATTGCGGAGGAAGG + anchor), 100 nM annealed; ATP concentration: 500 uM; one replicate.
In short: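 Five buffer/ATP imaging cycles were run on Cy3-labelled switching-strand clusters on a modified Illumina MiSeq flow-cell, with NaOH stripping and re-annealing between cycles. In each cycle, clusters annealed to 100 nM quencher-labelled ATP aptamer were imaged in selection buffer, then after 15 min with 500 uM ATP at 22 °C. Per cluster, the fluorescence ratio is summed target-cycle over summed buffer-cycle Cy3 intensity, averaged per switch-domain sequence. Only clusters within 100-1000 RFU were kept.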
In the case of TGCATGCTTT, the switch fluorescence ratio is reported as 1.01.
TGCCACAGGA gave a switch fluorescence ratio of 1.05.
In the case of TGCCACATCA, the switch fluorescence ratio is reported as 0.957.
TGCCAGAACG was tested, and the switch fluorescence ratio was 0.99.
TGCCCAGAGT showed a switch fluorescence ratio of 1.15.
Work on TGCCCATTGG yielded a switch fluorescence ratio of 0.966.
TGCCCCCAAT showed a switch fluorescence ratio of 1.08.
Work on TGCCCGAATT yielded a switch fluorescence ratio of 1.04.
With TGCCCGCTGA the switch fluorescence ratio was 1.25.
In the case of TGCCCTTAAC, the switch fluorescence ratio is reported as 1.03.
With TGCCGACAAG the switch fluorescence ratio was 1.02.
TGCCGAGCGG was tested, and the switch fluorescence ratio was 1.02.
Work on TGCCGAGTTG yielded a switch fluorescence ratio of 1.01.
TGCCGCAGCC gave a switch fluorescence ratio of 2.15.
Sequence TGCCGCAGGA has a switch fluorescence ratio of 1.12.
In the case of TGCCGCCCGA, the switch fluorescence ratio is reported as 1.09.
In the case of TGCCGCGTTA, the switch fluorescence ratio is reported as 1.09.
In the case of TGCCGTAGCT, the switch fluorescence ratio is reported as 1.03.
TGCCGTGGGG was tested, and the switch fluorescence ratio was 0.972.
TGCCTAGGCT was tested, and the switch fluorescence ratio was 0.957.
TGCCTATTTT showed a switch fluorescence ratio of 1.01.
Work on TGCCTGAAAG yielded a switch fluorescence ratio of 1.02.
TGCCTGAAGG gave a switch fluorescence ratio of 0.975.
In the case of TGCCTTAGGC, the switch fluorescence ratio is reported as 1.01.
TGCCTTCAAC was tested, and the switch fluorescence ratio was 1.09.
TGCGAAGAAT was tested, and the switch fluorescence ratio was 1.08.
In the case of TGCGAGCCGG, the switch fluorescence ratio is reported as 0.979.
With TGCGAGGCCT the switch fluorescence ratio was 1.
Sequence TGCGAGTGCG has a switch fluorescence ratio of 1.15.
In the case of TGCGATATAG, the switch fluorescence ratio is reported as 1.08.
Sequence TGCGATGGC has a switch fluorescence ratio of 1.38.
With TGCGATGGCG the switch fluorescence ratio was 0.994.
For TGCGCCAGCT, the switch fluorescence ratio was 1.
With TGCGCCCCAA the switch fluorescence ratio was 1.15.
Work on TGCGCCTTGG yielded a switch fluorescence ratio of 1.02.
In the case of TGCGCGCAGG, the switch fluorescence ratio is reported as 1.03.
TGCGCGGGTA was tested, and the switch fluorescence ratio was 1.13.
TGCGCGTGAC gave a switch fluorescence ratio of 1.06.
With TGCGCTAAGC the switch fluorescence ratio was 0.973.
In the case of TGCGGATGGC, the switch fluorescence ratio is reported as 1.02.
For TGCGGCATCT, the switch fluorescence ratio was 1.05.
Sequence TGCGGCGCCC has a switch fluorescence ratio of 1.02.
Work on TGCGGCGTGT yielded a switch fluorescence ratio of 0.987.
TGCGGGCCGG showed a switch fluorescence ratio of 1.04.
TGCGGGCGGG was tested, and the switch fluorescence ratio was 1.04.
TGCGGGTGCA was tested, and the switch fluorescence ratio was 0.995.
TGCGGGTTTA was tested, and the switch fluorescence ratio was 1.04.
Sequence TGCGGTAGTA has a switch fluorescence ratio of 1.02.
TGCGGTCCCT showed a switch fluorescence ratio of 1.14.
In the case of TGCGGTCTCG, the switch fluorescence ratio is reported as 0.97.
With TGCGTCTTGT the switch fluorescence ratio was 0.93.
TGCGTGAGAA was tested, and the switch fluorescence ratio was 1.01.
For TGCGTGAGGA, the switch fluorescence ratio was 1.02.
TGCGTGAGTC showed a switch fluorescence ratio of 1.02.
Work on TGCGTGCAGG yielded a switch fluorescence ratio of 1.03.
TGCGTTGAGG showed a switch fluorescence ratio of 1.02.
TGCGTTGGGA gave a switch fluorescence ratio of 1.04.
Sequence TGCGTTTTGC has a switch fluorescence ratio of 1.03.
TGCTAATACG gave a switch fluorescence ratio of 1.45.
In the case of TGCTAATGGC, the switch fluorescence ratio is reported as 1.
In the case of TGCTAATTAG, the switch fluorescence ratio is reported as 1.01.
Work on TGCTACACCA yielded a switch fluorescence ratio of 1.01.
With TGCTACAGCC the switch fluorescence ratio was 1.07.
With TGCTACATCT the switch fluorescence ratio was 1.04.
TGCTACTACT showed a switch fluorescence ratio of 1.09.
TGCTAGTGGG gave a switch fluorescence ratio of 0.959.
TGCTCAGAAT was tested, and the switch fluorescence ratio was 1.02.
For TGCTCATTAC, the switch fluorescence ratio was 1.28.
Sequence TGCTCCTCGC has a switch fluorescence ratio of 1.15.
With TGCTCGGTGA the switch fluorescence ratio was 1.01.
With TGCTCTGAT the switch fluorescence ratio was 1.01.
For TGCTCTTACT, the switch fluorescence ratio was 1.06.
TGCTCTTGGC gave a switch fluorescence ratio of 1.
For TGCTGAAGGT, the switch fluorescence ratio was 0.95.
TGCTGAGTGA was tested, and the switch fluorescence ratio was 0.967.
Work on TGCTGGCGCT yielded a switch fluorescence ratio of 0.95.
Work on TGCTGGGTAC yielded a switch fluorescence ratio of 1.03.
In the case of TGCTGGGTAG, the switch fluorescence ratio is reported as 1.01.
For TGCTGTGGTG, the switch fluorescence ratio was 1.02.
Sequence TGCTTAATAC has a switch fluorescence ratio of 2.12.
In the case of TGCTTATAAT, the switch fluorescence ratio is reported as 1.
TGCTTCCATT was tested, and the switch fluorescence ratio was 1.02.
For TGCTTGCCTG, the switch fluorescence ratio was 1.01.
Work on TGCTTGCGAA yielded a switch fluorescence ratio of 1.03.
With TGCTTGCTGA the switch fluorescence ratio was 1.01.
TGCTTGTATA showed a switch fluorescence ratio of 1.02.
With TGCTTGTCGG the switch fluorescence ratio was 0.985.
Sequence TGCTTTATCG has a switch fluorescence ratio of 1.04.
TGCTTTGTGC was tested, and the switch fluorescence ratio was 1.04.
TGGAAAACGT showed a switch fluorescence ratio of 1.01.
For TGGAAAGAAA, the switch fluorescence ratio was 1.06.
TGGAACATAC showed a switch fluorescence ratio of 1.34.
Work on TGGAACGGGG yielded a switch fluorescence ratio of 0.999.
In the case of TGGAAGATGA, the switch fluorescence ratio is reported as 0.958.
With TGGAAGCATC the switch fluorescence ratio was 1.07.
Work on TGGAAGCTGA yielded a switch fluorescence ratio of 0.994.
TGGAAGTTTG showed a switch fluorescence ratio of 1.
TGGAATAAAA was tested, and the switch fluorescence ratio was 0.965.
TGGAATAAAC showed a switch fluorescence ratio of 1.02.
With TGGAATAGCC the switch fluorescence ratio was 0.972.
Work on TGGAATCG yielded a switch fluorescence ratio of 0.993.
TGGACATAAT gave a switch fluorescence ratio of 1.
For TGGACATATA, the switch fluorescence ratio was 1.03.
Work on TGGACGGTTC yielded a switch fluorescence ratio of 1.04.
TGGACTACAC was tested, and the switch fluorescence ratio was 1.19.
Work on TGGAGACCAA yielded a switch fluorescence ratio of 1.
With TGGAGATAGC the switch fluorescence ratio was 1.07.
Work on TGGAGCTCAG yielded a switch fluorescence ratio of 0.972.
TGGAGGAAGG was tested, and the switch fluorescence ratio was 1.
For TGGAGGAGGT, the switch fluorescence ratio was 1.01.
TGGAGGGGAA gave a switch fluorescence ratio of 1.2.
For TGGAGTATGG, the switch fluorescence ratio was 1.06.
TGGAGTCTCT showed a switch fluorescence ratio of 1.01.
TGGAGTTGCG showed a switch fluorescence ratio of 1.01.
For TGGATAATGG, the switch fluorescence ratio was 0.972.
In the case of TGGATATACG, the switch fluorescence ratio is reported as 0.984.
With TGGATCATTC the switch fluorescence ratio was 1.
TGGATCCGGA showed a switch fluorescence ratio of 1.09.
In the case of TGGATGCAGG, the switch fluorescence ratio is reported as 0.982.
In the case of TGGATGCAGT, the switch fluorescence ratio is reported as 0.947.
Sequence TGGATGGGTG has a switch fluorescence ratio of 0.99.
In the case of TGGATGTGGA, the switch fluorescence ratio is reported as 1.
Sequence TGGATGTTGT has a switch fluorescence ratio of 1.01.
TGGATTTATC was tested, and the switch fluorescence ratio was 0.997.
Work on TGGATTTGAA yielded a switch fluorescence ratio of 0.968.
In the case of TGGATTTTTA, the switch fluorescence ratio is reported as 1.02.
TGGCAAAGAG gave a switch fluorescence ratio of 1.
Work on TGGCACCATG yielded a switch fluorescence ratio of 1.02.
With TGGCACCCCG the switch fluorescence ratio was 1.1.
With TGGCAGGATA the switch fluorescence ratio was 0.97.
TGGCATTTGG showed a switch fluorescence ratio of 1.03.
TGGCATTTTG was tested, and the switch fluorescence ratio was 1.01.
TGGCCCAGCT gave a switch fluorescence ratio of 0.979.
Work on TGGCCCAGGA yielded a switch fluorescence ratio of 1.23.
In the case of TGGCCCATGA, the switch fluorescence ratio is reported as 1.04.
TGGCCCCTGG was tested, and the switch fluorescence ratio was 1.06.
TGGCGAAAGT was tested, and the switch fluorescence ratio was 0.991.
TGGCGAAATT showed a switch fluorescence ratio of 1.01.
In the case of TGGCGGCGTT, the switch fluorescence ratio is reported as 1.05.
TGGCGGCTTG showed a switch fluorescence ratio of 0.976.
TGGCGGGCAA showed a switch fluorescence ratio of 0.965.
TGGCGGGCG showed a switch fluorescence ratio of 1.06.
For TGGCGTAGTG, the switch fluorescence ratio was 1.02.
Work on TGGCTCGCAA yielded a switch fluorescence ratio of 3.42.
TGGCTGAGCA was tested, and the switch fluorescence ratio was 1.04.
Sequence TGGCTGGGAT has a switch fluorescence ratio of 1.
For TGGCTGTATA, the switch fluorescence ratio was 0.964.
In the case of TGGGAACGTT, the switch fluorescence ratio is reported as 1.03.
In the case of TGGGAAGCTG, the switch fluorescence ratio is reported as 0.952.
Sequence TGGGAATTTG has a switch fluorescence ratio of 1.01.
Sequence TGGGAGCCAG has a switch fluorescence ratio of 0.999.
TGGGAGCCGA showed a switch fluorescence ratio of 1.1.
Work on TGGGAGGAT yielded a switch fluorescence ratio of 1.
In the case of TGGGATCTTC, the switch fluorescence ratio is reported as 0.977.
In the case of TGGGATGGTC, the switch fluorescence ratio is reported as 0.918.
Sequence TGGGATGTCC has a switch fluorescence ratio of 1.03.
TGGGCACGCG gave a switch fluorescence ratio of 0.977.
In the case of TGGGCCACCC, the switch fluorescence ratio is reported as 1.07.
Work on TGGGCCCGTT yielded a switch fluorescence ratio of 1.01.
Work on TGGGCCCTAG yielded a switch fluorescence ratio of 0.99.
For TGGGCCTCAA, the switch fluorescence ratio was 1.03.
In the case of TGGGCGCAAT, the switch fluorescence ratio is reported as 1.64.
TGGGCGGTTG gave a switch fluorescence ratio of 0.934.
TGGGCGTAGG gave a switch fluorescence ratio of 1.
With TGGGCTACTA the switch fluorescence ratio was 0.99.
For TGGGCTGGAG, the switch fluorescence ratio was 1.
In the case of TGGGCTGGTG, the switch fluorescence ratio is reported as 1.
For TGGGCTTGCG, the switch fluorescence ratio was 0.985.
Work on TGGGGAGACG yielded a switch fluorescence ratio of 0.966.
TGGGGATTCA showed a switch fluorescence ratio of 1.02.
In the case of TGGGGCAGAA, the switch fluorescence ratio is reported as 0.993.
TGGGGCAGCC gave a switch fluorescence ratio of 0.995.
With TGGGGCCTTG the switch fluorescence ratio was 1.
With TGGGGCGATA the switch fluorescence ratio was 1.02.
TGGGGGCATG was tested, and the switch fluorescence ratio was 1.04.
TGGGGTACCG showed a switch fluorescence ratio of 1.02.
With TGGGGTCACA the switch fluorescence ratio was 1.03.
With TGGGGTCGGT the switch fluorescence ratio was 1.26.
TGGGGTTTAA showed a switch fluorescence ratio of 0.938.
With TGGGTACAAA the switch fluorescence ratio was 1.04.
TGGGTATTAA gave a switch fluorescence ratio of 1.03.
Sequence TGGGTCAAGC has a switch fluorescence ratio of 1.
In the case of TGGGTCACGT, the switch fluorescence ratio is reported as 0.981.
TGGGTCCCGA showed a switch fluorescence ratio of 1.01.
With TGGGTCCG the switch fluorescence ratio was 1.03.
TGGGTCGCAG gave a switch fluorescence ratio of 0.973.
TGGGTCTATC was tested, and the switch fluorescence ratio was 1.02.
TGGGTCTCAC showed a switch fluorescence ratio of 0.959.
For TGGGTGCGA, the switch fluorescence ratio was 1.13.
TGGGTGGCCC showed a switch fluorescence ratio of 1.03.
For TGGGTGGGCA, the switch fluorescence ratio was 1.02.
TGGGTGTTAC showed a switch fluorescence ratio of 0.993.
Sequence TGGGTTATAA has a switch fluorescence ratio of 0.989.
With TGGGTTTAAG the switch fluorescence ratio was 1.01.
TGGTAAAGAG was tested, and the switch fluorescence ratio was 0.995.
With TGGTAAAGG the switch fluorescence ratio was 0.998.
In the case of TGGTAACGCT, the switch fluorescence ratio is reported as 1.05.
TGGTAAGCTT was tested, and the switch fluorescence ratio was 0.993.
For TGGTAAGTAG, the switch fluorescence ratio was 1.04.
For TGGTACGAAT, the switch fluorescence ratio was 0.996.
